# Measured values from PubChem BioAssay AID588453 (National Center for Advancing Translational Sciences (NCATS), 2011).
# Among all 390,000 compounds or so, about 4,000 (1%) were called active. Inconclusive means that the source gave no clear call. Such entries were picked first, then a sample of the others. The call rests on the fitted dose curve; in most records, active means well fitted inhibition curve with a large enough effect; inconclusive means small, poorly fitted or top-dose-only effect; inactive means no such curve, though single readings can be large or run the other way. Where the call is inconclusive, the potency comes from a doubtful curve fit.
# Target: Thioredoxin reductase 1, cytoplasmic (Rattus norvegicus) (UniProt O89049)
# Experiment: qHTS Assay for Inhibitors of Mammalian Selenoprotein Thioredoxin Reductase 1 (TrxR1): qHTS; further: nearly all actives have a fitted effect of over 65% in size
# Conditions: recombinant rTrxR1, NADPH fluorescence consumption, selenite substrate; series mostly up to 114 µM
# Summary of the method: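 Rat TrxR1 (90 nM in the dispensed reagent) was pre-reduced with 400 uM NADPH for 5 min at room temperature, then incubated with compound for 15 min. After 400 uM selenite was added, NADPH fluorescence (Ex 340/Em 450 nm) was followed for 8 min.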
# Potency means the concentration at half of the fitted maximal effect; tags describe the fitted curve by direction and shape.
# UniProt O89049, sequence (O89049 whole entry, looked up): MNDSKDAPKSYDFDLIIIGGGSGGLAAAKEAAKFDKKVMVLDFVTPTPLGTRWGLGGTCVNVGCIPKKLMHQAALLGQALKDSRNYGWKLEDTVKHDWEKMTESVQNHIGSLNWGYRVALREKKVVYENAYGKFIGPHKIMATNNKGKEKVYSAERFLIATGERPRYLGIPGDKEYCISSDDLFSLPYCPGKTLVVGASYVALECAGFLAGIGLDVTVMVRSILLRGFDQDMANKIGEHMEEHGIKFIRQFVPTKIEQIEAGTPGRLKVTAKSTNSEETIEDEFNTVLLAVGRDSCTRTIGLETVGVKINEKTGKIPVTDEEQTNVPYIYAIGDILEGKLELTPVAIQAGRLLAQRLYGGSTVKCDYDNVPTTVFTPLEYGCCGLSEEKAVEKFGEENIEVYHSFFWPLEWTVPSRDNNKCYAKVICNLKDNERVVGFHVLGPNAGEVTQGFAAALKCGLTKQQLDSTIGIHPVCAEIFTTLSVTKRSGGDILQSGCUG
row,Structure (SMILES),Potency
1,O=C(/C=C/c1cccnc1)c1ccc(F)c(F)c1,"inconclusive: 56.2 µM [inhibitor, partial curve]"
2,CC1CCN(C(=O)c2ccc(S(=O)(=O)Cc3cccc(F)c3)c([N+](=O)[O-])c2)CC1,"inconclusive: 11.2 µM [inhibitor, full curve]"
3,O=C(O)CCc1ccc(-c2ccc(F)cc2)n1CC(=O)O,"inconclusive: 56.2 µM [inhibitor, single point]"
4,CCc1nc2ccc(C(=O)N3CCN(c4cc(C)ccc4C)CC3)cc2nc1CC,inactive
5,NS(=O)(=O)c1ccc(-c2ccc(/C=C3\NC(=S)NC3=O)o2)cc1,active: 12.6 µM
6,C=CCn1c(O)c(CN2CCOCC2)c(C)c(C#N)c1=O,inactive
7,CC(C)Cc1ccc(S(=O)(=O)NCc2nc3cccnc3n2Cc2ccccc2)cc1,inactive
8,CCCCCOc1ccccc1CN1C(=O)C(=O)c2cc(C)ccc21,inactive
9,COc1ccccc1NC(=O)CSc1ccc(-c2ccco2)nn1,active: 50.1 µM
10,COc1ccc(NC(=O)Nc2cc3oc4ccccc4c3cc2OC)cc1,inactive
11,COCC(=O)Nc1nc2n(n1)C(c1ccccc1)CC(c1ccc(OC)cc1)N2 (stereo unspecified),"inconclusive: 3.16 µM [inhibitor, full curve, poor fit]"
12,CN1CCN(c2cc(=O)n(C3CCCCC3)c(=O)[nH]2)CC1,active: 25.1 µM
13,CCOCCCNc1nc(=S)[nH]c2cc(OC)c(OC)cc12,"inconclusive: 28.2 µM [inhibitor, single point]"
14,CC(/C=N/n1c(-c2ccco2)n[nH]c1=S)=C\c1ccco1,"inconclusive: 35.5 µM [inhibitor, partial curve]"
15,Cc1ccc(SC2=NS(=O)(=O)c3ccccc32)c(C)c1,"inconclusive: 1.12 µM [inhibitor, full curve, poor fit]"
16,O=C1NC(=O)c2cc(Nc3ccccc3)c(Nc3ccccc3)cc21,"inconclusive: 37.7 µM [inhibitor, single point]"
17,CCN(CC)S(=O)(=O)c1cc(NC(=O)C2CCN(c3ncnc4sc(C)c(C)c34)CC2)ccc1Cl,inactive
18,CCCCN(C)S(=O)(=O)c1ccc(NC2=NS(=O)(=O)c3ccccc32)cc1,inactive
19,O=C(CSc1nc2[nH]ncc2c(=O)n1-c1ccccc1Cl)N1CCCC1,"inconclusive: 89.1 µM [inhibitor, single point]"
20,COc1ccc(Cl)cc1NC(=S)NNC(=O)c1cccs1,"inconclusive: 8.91 µM [inhibitor, partial curve]"
21,COc1ccc(C(=O)NC(=S)Nc2cccnc2)cc1Cl,"inconclusive: 39.8 µM [inhibitor, partial curve]"
22,CN(Cc1ccccc1)C(=O)c1ccc([N+](=O)[O-])o1,"inconclusive: 14.1 µM [inhibitor, full curve]"
23,COc1ccc(-n2c(=O)cc(N3CCN(c4ccccc4F)CC3)[nH]c2=O)cc1,"inconclusive: 3.16 µM [inhibitor, partial curve, poor fit]"

row,Structure (SMILES),Potency
1,CCCCc1cc(=O)oc2c(CN3CCCC3)c(O)c(Cl)cc12,"inconclusive: 100 µM [inhibitor, single point]"
2,OC(COC(c1ccccc1)c1ccccc1)CN1CCOCC1 (stereo unspecified),"inconclusive: 89.1 µM [inhibitor, partial curve, poor fit]"
3,Clc1cccc(-c2nc3ccccn3c2Nc2ccc3c(c2)OCCO3)c1,inactive
4,Cc1ccc(S(=O)(=O)N(CC(=O)Nc2ccccc2C(=O)O)c2ccccc2C)cc1,inactive
5,O=C(CN1CCc2cc3c(cc2C1)OCCCO3)Nc1cccc([N+](=O)[O-])c1,"inconclusive: 79.4 µM [inhibitor, single point]"
6,COc1cc2c(cc1OC)/C(=C/C#N)NC(C)(C)C2,"inconclusive: 25.1 µM [inhibitor, single point]"
7,CCCCCCCCCC[n+]1ccc(/C=C/c2c[nH]c3ccccc23)c2ccccc21,"inconclusive: 50.1 µM [inhibitor, partial curve]"
8,O=C(CSc1cccc2cccnc12)OCC(=O)c1ccccc1,"inconclusive: 89.1 µM [inhibitor, partial curve]"
9,O=C(c1ccco1)N1CCN(C(=O)c2ccccc2Oc2ccccc2)CC1,"inconclusive: 89.1 µM [inhibitor, single point]"
10,COc1ccc2cc(C(=O)N3CCN(c4ccccc4F)CC3)[nH]c2c1,"inconclusive: 79.4 µM [inhibitor, partial curve, poor fit]"
11,Cc1ccc(-c2c3c(=O)n(C)c(=O)n(C)c3c3cnc4ccccc4n23)cc1,inactive
12,O=C(Nc1ccc(-c2nc3cccnc3s2)cc1)C1CCCO1 (stereo unspecified),inactive
13,CNC(C)C#Cc1ccc2c(=O)c3cc(C)c(C)cc3oc2c1 (stereo unspecified),"inconclusive: 15.8 µM [inhibitor, full curve, poor fit]"
14,Cc1cc(C)cc(NC(=S)NC(=O)C2CC2)c1,"inconclusive: 79.4 µM [inhibitor, partial curve]"
15,CC1(C)CC(=O)C=C(NC2=CC3OC(c4ccccc4)OCC3OC2=O)C1 (stereo unspecified),active: 15.8 µM
16,N#C/C(=N\Nc1cc(Cl)cc(Cl)c1)c1nnc2n1CCCCC2,inactive
17,CN(C(=O)c1ccncc1)c1nnc(-c2ccccn2)s1,"inconclusive: 39.8 µM [inhibitor, single point]"
18,COc1cccc(-n2c(CN3CCN(c4ccccc4)CC3)nc3ccc([N+](=O)[O-])cc3c2=O)c1,"inconclusive: 39.8 µM [inhibitor, partial curve]"
19,O=C(COc1ccccc1/C=C\c1[nH]c(=O)[nH]c(=O)c1[N+](=O)[O-])Nc1ccccc1,"inconclusive: 22.4 µM [inhibitor, partial curve, poor fit]"
20,CCc1[nH]c(C)c(C(C)=O)c1C,"inconclusive: 11.2 µM [inhibitor, partial curve]"
21,CCOC(=O)C1CN(S(=O)(=O)c2ccc(C)cc2)c2ccccc2O1 (stereo unspecified),active: 3.16 µM
22,Cc1ccc(C(=O)NC(=S)N(C)C2CCCCC2)cc1,inactive
23,Nc1c(C(=O)NCc2ccco2)c2nc3ccccc3nc2n1CCc1ccccc1F,"inconclusive: 89.1 µM [inhibitor, single point]"
